Experiments:
K-Ras WT [1] = target: T1, K-Ras WT (Homo sapiens, UniProt P01116); assay: SOS1 catalyzed nucleotide exchange assay (GDP form K-Ras), TR-FRET; details: read-out: Biochemical assays, IC50, K-Ras WT GDP
Description: The parameters were F486: Excitation 340 nm, Emission 486 nm, Lag time 100 pas, Integration time 200 pas; F515: Excitation 340 nm, Emission 515 nm, Lag time 100 pas, Integration time 200 pas. TR-FRET ratios for each individual wells were calculated by equation: TR-FRET ratio=(Signal F515/Signal F486)*10000.

K-Ras WT [2] = target: T1, K-Ras WT; assay: GTP-K-Ras (GppNp-K-Ras) and cRAF interaction assay, HTRF; details: read-out: Biochemical assays, IC50, K-Ras WT GppNp
Excerpt: GppNp is an analog of GTP.

| SMILES | IC50 (K-Ras WT [1]) [nM] | IC50 (K-Ras WT [2]) [nM] |
| --- | --- | --- |
| C#Cc1c(F)ccc2cc(O)cc(-c3nc(OC)c4c(N(C)C5CC5)nc(OC[C@@]56CCCN5C[C@H](F)C6)nc4c3F)c12 [Compound 2, 4-(4-(cyclopropyl(methyl)amino)-8-fluoro-2-(((2R,7aS)-2-fluorotetrahydro-1H-pyrrolizin-7a(5H)-yl)methoxy)-5-methoxypyrido[4,3-d]pyrimidin-7-yl)-5-ethynyl-6-fluoronaphthalen-2-ol] | 8.69 |  |
| C#Cc1c(F)ccc2cc(O)cc(-c3ncc4c(N(C)[C@@H]5C[C@@H]5F)nc(OC[C@@]56CCCN5C[C@H](F)C6)nc4c3F)c12 [Compound 13, 5-ethynyl-6-fluoro-4-(8-fluoro-4-(((1R,2S)-2-fluorocyclopropyl)(methyl)amino)-2-(((2R,7aS)-2-fluorotetrahydro-1H-pyrrolizin-7a(5H)-yl)methoxy)pyrido[4,3-d]pyrimidin-7-yl)naphthalen-2-ol] | 32.3 | 1630 |
| C#Cc1c(F)ccc2cc(O)cc(-c3ncc4c(NC5CC5)nc(OC[C@@]56CCCN5C[C@H](F)C6)nc4c3F)c12 [Compound 18, 4-(4-(cyclopropylamino)-8-fluoro-2-(((2R,7aS)-2-fluorotetrahydro-1H-pyrrolizin-7a(5H)-yl)methoxy)pyrido[4,3-d]pyrimidin-7-yl)-5-ethynyl-6-fluoronaphthalen-2-ol formic acid] | 6.59 | 2140 |

From US20240376128A1, “N-CYCLOPROPYLPYRIDO [4, 3-D] PYRIMIDIN-4-AMINE DERIVATIVES AND USES THEREOF” (Jacobio Pharmaceuticals Co., Ltd., priority 2021, published 2024)
